Results from the BET-seq Pho4 binding data (Le et al. 2018).
This is one part of the list. The energies were worked out here from pooled read counts, against the library average; single values are noisy.

Molecular target: T1, Pho4 (S. cerevisiae) (UniProt P07270)
T1 sequence: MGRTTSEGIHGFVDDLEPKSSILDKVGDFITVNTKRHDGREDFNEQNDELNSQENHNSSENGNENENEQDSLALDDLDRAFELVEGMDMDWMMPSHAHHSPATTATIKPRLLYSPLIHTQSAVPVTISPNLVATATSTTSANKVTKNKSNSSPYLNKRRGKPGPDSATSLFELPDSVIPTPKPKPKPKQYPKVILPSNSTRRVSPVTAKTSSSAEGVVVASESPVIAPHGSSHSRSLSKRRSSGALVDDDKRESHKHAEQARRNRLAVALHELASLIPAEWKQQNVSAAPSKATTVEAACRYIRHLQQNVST
Experiment: relative binding free energy (BET-seq); higher = weaker binding
Conditions: reference: library average

Sequence	relative binding free energy
TGGTTCACGTGGCATG	0.29 kcal/mol
TGTGTCACGTGCAGGT	0.01 kcal/mol
AGGGTCACGTGCGGTC	0.06 kcal/mol
CGCGGCACGTGATGTG	-0.02 kcal/mol
TGGCTCACGTGCGAGT	0.13 kcal/mol
TATGACACGTGGGTTC	-0.18 kcal/mol
TGGGTCACGTGGCTAC	0.09 kcal/mol
TGCTGCACGTGGTACT	-0.1 kcal/mol
TGATACACGTGGGGCA	-0.15 kcal/mol
TTTTGCACGTGGGCTC	0 kcal/mol
TAAATCACGTGAATAG	0.45 kcal/mol
CGTAACACGTGGATGT	-0.06 kcal/mol
GTGATCACGTGGGGTC	0.03 kcal/mol
AGATTCACGTGAAGGG	0.32 kcal/mol
GATAACACGTGCGTGG	0.03 kcal/mol
GTTGTCACGTGCTGCT	0.08 kcal/mol
GATAACACGTGTATGG	0.08 kcal/mol
ATGTTCACGTGTTGAA	0.23 kcal/mol
GCGGGCACGTGGGAAG	-0.06 kcal/mol
GTTTTCACGTGTTCCG	0.33 kcal/mol
GGTAGCACGTGTTGCG	-0.01 kcal/mol
CCGTGCACGTGGGATT	-0.07 kcal/mol
GTTGGCACGTGTTTTT	0.13 kcal/mol
GTTTTCACGTGTACTT	0.41 kcal/mol
TGGCTCACGTGGGAAA	0.27 kcal/mol

Sequence	relative binding free energy
GAGTGCACGTGTACTT	0.06 kcal/mol
GTAAACACGTGAGAGG	0.27 kcal/mol
AAGATCACGTGGGGTG	0.02 kcal/mol
GGGGTCACGTGTGCCT	0.19 kcal/mol
GTGTACACGTGATGAA	0.23 kcal/mol
TTGATCACGTGGAAGA	0.37 kcal/mol
GGATGCACGTGATGAT	0.18 kcal/mol
GCAGGCACGTGTGTTT	0.01 kcal/mol
ATAGGCACGTGATTGA	0.04 kcal/mol
TATCGCACGTGTAGTG	-0.05 kcal/mol
TTGCGCACGTGAGGCG	0.21 kcal/mol
TATAGCACGTGTATGT	-0.09 kcal/mol
TCGGACACGTGGTAGG	0.03 kcal/mol
TCGATCACGTGTTGTA	0.1 kcal/mol
TTGGCCACGTGAGAAT	0.27 kcal/mol
GTTTGCACGTGAGGCG	0.31 kcal/mol
TGTACCACGTGGGCGT	-0.24 kcal/mol
GAGTGCACGTGAATTG	0.29 kcal/mol
TTACGCACGTGCGGTT	-0.12 kcal/mol
AGTTGCACGTGGTTAT	-0.12 kcal/mol
TTTTACACGTGTATAT	0.04 kcal/mol
TAATTCACGTGTAAAT	0.39 kcal/mol
GTTGGCACGTGACGGC	-0.03 kcal/mol
GGTGTCACGTGATTCT	0.29 kcal/mol
AGGGTCACGTGACTTA	0.15 kcal/mol

Sequence	relative binding free energy
GTATCCACGTGGAGGT	-0.08 kcal/mol
TTATGCACGTGGAAGA	-0.12 kcal/mol
GTGGACACGTGGGTTT	-0.02 kcal/mol
TTTAGCACGTGGATGC	-0.12 kcal/mol
GGTGGCACGTGGATCT	0.03 kcal/mol
ATATACACGTGGGAGG	-0.18 kcal/mol
AGTGGCACGTGCTTGC	-0.17 kcal/mol
TTTATCACGTGGGGGT	-0.01 kcal/mol
AGGGGCACGTGTGGGC	-0.14 kcal/mol
TTCGTCACGTGTGAGT	0.21 kcal/mol
AGTGCCACGTGAGTTG	0.04 kcal/mol
TGTTTCACGTGTTACA	0.12 kcal/mol
CAGGTCACGTGCATGG	0.08 kcal/mol
TTTGGCACGTGTACTA	-0.03 kcal/mol
AGATGCACGTGTGTAG	-0.07 kcal/mol
GTTCTCACGTGGAGTG	0.19 kcal/mol
GGGCGCACGTGTTGAT	-0.15 kcal/mol
GTCGGCACGTGTTGGT	0.03 kcal/mol
GCGTGCACGTGAGCGT	0.27 kcal/mol
GTGGGCACGTGGGCAA	-0.15 kcal/mol
ATGACCACGTGTGTGG	-0.09 kcal/mol
TGGCTCACGTGCTGGT	0.08 kcal/mol
AGCGGCACGTGGTTGG	-0.16 kcal/mol
GGTTGCACGTGCATAG	-0.15 kcal/mol
ATGAGCACGTGGTGTC	-0.19 kcal/mol

Sequence	relative binding free energy
ATAGTCACGTGTGCAT	0.03 kcal/mol
GGTTACACGTGGGCAG	0 kcal/mol
ACTAGCACGTGATGGG	-0.02 kcal/mol
GTGGCCACGTGGGAGG	-0.15 kcal/mol
TGGAGCACGTGATGCT	0.06 kcal/mol
GATGTCACGTGTGCTA	0.07 kcal/mol
GAATGCACGTGAGATT	0.34 kcal/mol
CGGGACACGTGTTGGG	0.07 kcal/mol
GTCGTCACGTGCGTGT	0.02 kcal/mol
GGAGCCACGTGTGGGC	-0.02 kcal/mol
AATTACACGTGAATGT	0.41 kcal/mol
TCAGGCACGTGAGCGG	0.09 kcal/mol
TTTCGCACGTGGCATT	-0.1 kcal/mol
GTTGTCACGTGTTAAT	0.2 kcal/mol
AATAGCACGTGGGCTT	-0.08 kcal/mol
GCAGTCACGTGGAGTT	0.23 kcal/mol
ATTAACACGTGCTTTT	0 kcal/mol
TGTCGCACGTGTAGGC	0.04 kcal/mol
AGTTGCACGTGTTTCG	0.05 kcal/mol
AGAGACACGTGGTTTT	0.01 kcal/mol
TGTCTCACGTGGTGGG	0.15 kcal/mol
GGAGACACGTGGAGTG	0.03 kcal/mol
TTGGGCACGTGAGACA	0.04 kcal/mol
TGGCACACGTGCTAGG	0.07 kcal/mol
AGAGTCACGTGGGCAG	0.05 kcal/mol

Sequence	relative binding free energy
AATTTCACGTGTTCGT	0.22 kcal/mol
GGTAGCACGTGGAGCA	-0.1 kcal/mol
AATGTCACGTGGGACG	-0.06 kcal/mol
AGTTGCACGTGTGTGA	-0.05 kcal/mol
ATCTTCACGTGAGGTG	0.3 kcal/mol
CTTCGCACGTGGGTTG	-0.15 kcal/mol
TTTCGCACGTGTCTGG	0.02 kcal/mol
TTCGTCACGTGACAGG	0.2 kcal/mol
AGGGACACGTGGTGAG	0.01 kcal/mol
TTAAACACGTGGTAGC	0.1 kcal/mol
TAGTGCACGTGGCTGT	-0.08 kcal/mol
TGGATCACGTGTAGGG	0.18 kcal/mol
AGACGCACGTGCGGGG	-0.26 kcal/mol
GTTTTCACGTGGTCTG	0.29 kcal/mol
AATTACACGTGGCTTG	0.05 kcal/mol
CTTGACACGTGGTAAG	-0.02 kcal/mol
GTGAACACGTGGCAGG	-0.07 kcal/mol
CTTGGCACGTGAAGCG	0.31 kcal/mol
GACTGCACGTGGTGTG	0.02 kcal/mol
GTTAACACGTGGGACG	-0.06 kcal/mol
TTATGCACGTGCTTCA	-0.05 kcal/mol
TGTCGCACGTGTGGCG	-0.03 kcal/mol
TCGAGCACGTGGATGT	-0.09 kcal/mol
AAGGTCACGTGGATTC	0.25 kcal/mol
AAGTTCACGTGGGCTG	0.28 kcal/mol

Sequence	relative binding free energy
GTTTTCACGTGGTAGT	0.3 kcal/mol
CCGGGCACGTGTTATG	-0.05 kcal/mol
TTTCACACGTGGGATG	-0.05 kcal/mol
TTAGACACGTGAGTGT	0.22 kcal/mol
ATGCTCACGTGAGGAT	0.36 kcal/mol
GAGATCACGTGGGTTG	0.09 kcal/mol
GCTGGCACGTGTGATT	-0.05 kcal/mol
TGTGACACGTGTATGA	-0.02 kcal/mol
ATTTTCACGTGTCCTT	0.41 kcal/mol
ACTGTCACGTGGTTAT	-0.03 kcal/mol
GTTATCACGTGAGATA	0.37 kcal/mol
TTTTGCACGTGCAGGC	-0.04 kcal/mol
GTTCACACGTGGTGGT	0.07 kcal/mol
AGAGGCACGTGTTTTA	0.01 kcal/mol
TTTGGCACGTGATCAG	-0.12 kcal/mol
TAGTACACGTGCTTGT	0.04 kcal/mol
AGGGGCACGTGCGCAG	-0.19 kcal/mol
TAAGGCACGTGTGAAG	0 kcal/mol
ATGGCCACGTGTTATT	0.07 kcal/mol
AAGTCCACGTGGTAGG	0.03 kcal/mol
GGGGTCACGTGCTTTA	0.03 kcal/mol
